The full ranking holds about 33,000 sequences; the median of “E-score (dimensionless, -0.5 to 0.5)” is about -0.058, and the highest 2% start at about 0.35. This is one part of the list.

This assay relates to MvaT. Put plainly: PBM 8-mer E-score (mean of HK and ME arrays) (E-score (dimensionless, -0.5 to 0.5)); higher = stronger relative binding preference; most listed sequences are background and not binding sites. In outline: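 Full-length P. aeruginosa MvaT, with glutathione S-transferase fused to its N-terminus (cloned into pTH6838 by isothermal assembly), was tested by protein binding microarray using a previously described protocol. Two universal double-stranded 60-mer arrays (ME and HK) were used, each with a constant 25-mer primer region and a variable 35-mer region covering all 8-mers. The rank-based 8-mer E-score (-0.5 to 0.5) is the mean of the two arrays, parsed with a custom Python script.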
Take CACGAGGA: the “PBM 8-mer E-score” value was -0.245.
In the case of CCGAGCTA, the “PBM 8-mer E-score” value is -0.15.
As for CATGCAAG, the figure is -0.0275; as for GGAACGGA, -0.238.
To AAAAGTGA belongs 0.0292; to GAGTCATA, -0.0177; to ATATTTAC, 0.36.
Take ATGGTGGC: the “PBM 8-mer E-score” value is -0.17.
Regarding CTACAGAG, the “PBM 8-mer E-score” value was -0.143.
With GGAATATA, the “PBM 8-mer E-score” value was 0.329.
As to GCACGCAA, the “PBM 8-mer E-score” value is -0.0708.
Turning to CGCCTAGC, the “PBM 8-mer E-score” value is -0.287.
CGCCTACA: the “PBM 8-mer E-score” value is -0.0806.
Turning to AGTAACAA, the “PBM 8-mer E-score” value amounted to 0.232.
Take ATACTAAA: the “PBM 8-mer E-score” value was determined as 0.328.
As to AGCCAAAC, the “PBM 8-mer E-score” value is -0.000144.
As for CGAATCTC, the figure is -0.26; as for ATCGTGAG, -0.109.
Take CGCGTCAA: the “PBM 8-mer E-score” value was -0.0539.
Take GGCTTTAA: the “PBM 8-mer E-score” value came to 0.135.
Turning to CTGCGTCC, the “PBM 8-mer E-score” value is -0.266.
Consider CAATCGGG, for which the “PBM 8-mer E-score” value is -0.0353.
As for GAGATCTC, the “PBM 8-mer E-score” value was -0.136.
As to AGCAAATG, the “PBM 8-mer E-score” value stood at 0.0498.
With GGCATTAC, the “PBM 8-mer E-score” value was -0.108.
For the sequence TAGAGACA, the “PBM 8-mer E-score” value amounted to 0.123.
With ATCCTGTA, the “PBM 8-mer E-score” value is 0.119.
As to TACGTGCA, the “PBM 8-mer E-score” value came out at 0.0131.
As to CACATCAA, the “PBM 8-mer E-score” value was -0.101.
Take GGGTCGTA: the “PBM 8-mer E-score” value is -0.252.
As for GACACGAA, the figure is -0.0595; as for GAATCAAC, -0.215; as for AGCTCTAG, -0.173.
CATGGGTC: the “PBM 8-mer E-score” value was -0.179.
For the sequence GCGTTATA, the “PBM 8-mer E-score” value stood at 0.252.
To GACTCCCA belongs -0.195; to CCTTGAAG, -0.261; to ACCCCATA, -0.17.
For AGAAGGAT, the “PBM 8-mer E-score” value was -0.0825.
Turning to TAGGGGAA, the “PBM 8-mer E-score” value is -0.0502.
Regarding ACAGTCCC, the “PBM 8-mer E-score” value was -0.0231.
As to GCCATTAA, the “PBM 8-mer E-score” value amounted to 0.264.
With GCATGCAC, the “PBM 8-mer E-score” value is -0.161.
For CCGAATCA, the “PBM 8-mer E-score” value turned out to be 0.0511.
For AAGTGAAG, the “PBM 8-mer E-score” value was -0.102.
Take AAACGGCT: the “PBM 8-mer E-score” value worked out at 0.00649.
In the case of ACTATCAT, the “PBM 8-mer E-score” value turned out to be 0.286.
To ATGGAGTG belongs -0.0816; to TCAATCAA, 0.058.
Consider AGGTTAGA, for which the “PBM 8-mer E-score” value was -0.0314.
Consider AGTTCACA, for which the “PBM 8-mer E-score” value was found to be 0.141.
For the sequence CGCCAGGC, the “PBM 8-mer E-score” value is -0.209.
To CTTTTCCA belongs -0.066; to AGTACTCG, -0.0302.
Regarding ACTCCGCT, the “PBM 8-mer E-score” value is -0.112.
Consider CGTGCCTA, for which the “PBM 8-mer E-score” value is -0.175.
Turning to CTCAGGCC, the “PBM 8-mer E-score” value was -0.241.
ATCCCCCC: the “PBM 8-mer E-score” value was -0.221.
With ACCGCAAC, the “PBM 8-mer E-score” value came out at 0.00986.
CGTATATC: the “PBM 8-mer E-score” value stood at 0.143.
To CCATTAGC belongs -0.0177; to CGATTCAG, -0.128.
For GCTGTCTA, the “PBM 8-mer E-score” value was -0.193.
Take AATTGGTA: the “PBM 8-mer E-score” value came out at 0.178.
In the case of CGAGTTAA, the “PBM 8-mer E-score” value is 0.222.
In the case of CACTGAAG, the “PBM 8-mer E-score” value is -0.245.
For the sequence CGGGCCTC, the “PBM 8-mer E-score” value is -0.34.
In the case of CAAGGTCG, the “PBM 8-mer E-score” value is -0.153.
As for AAGAGTCT, the “PBM 8-mer E-score” value is -0.0411.
Take ACGACAAA: the “PBM 8-mer E-score” value was determined as 0.111.
For the sequence CTTCAGCC, the “PBM 8-mer E-score” value was -0.254.
For the sequence ACGTAGCG, the “PBM 8-mer E-score” value was -0.212.
Regarding AAAACACC, the “PBM 8-mer E-score” value is 0.0822.
Turning to AGTCGATC, the “PBM 8-mer E-score” value was -0.105.
With TCCTAACA, the “PBM 8-mer E-score” value was 0.0526.
With TACCACAA, the “PBM 8-mer E-score” value amounted to 0.0498.
To AGCAGGCA belongs -0.152.
To TAGCCTCA belongs -0.117; to CTCAATCC, -0.101.
In the case of GGCGACTA, the “PBM 8-mer E-score” value was -0.259.
For the sequence ACGCCAGC, the “PBM 8-mer E-score” value was -0.115.
For CGCTTGCA, the “PBM 8-mer E-score” value is -0.187.
For CGCCGCAG, the “PBM 8-mer E-score” value was -0.24.
Regarding ATTTTACA, the “PBM 8-mer E-score” value is 0.371.
For CTCCCCTA, the “PBM 8-mer E-score” value is -0.28.
As to CTTCGTGC, the “PBM 8-mer E-score” value is -0.0984.

The values above are taken from the supplement of paper PMC4466236.
